Measured values from PubChem BioAssay (Tox21).
“And” between values parts separate entries of the source, which are not always exact repeats. Equal values may be shown once. The shares of active, inactive and inconclusive entries below differ from those in the screen. Potencies of inconclusive entries are doubtful fits and often do not repeat. Where a structure was tested more than once in an assay, its records may differ in their call. The source made the active and inactive calls. Unless noted, calls come from the whole dose curve.

Legend:
[1] = qHTS assay to identify small molecule antagonists of the estrogen related receptor signaling pathway with the pleiotropic PPARgamma coactivator (PGC) from Tox21 10K library - cell viability counter screen (AID 1224840; active = well fitted cell-killing curve with a large enough effect in the repeat runs, not every such curve was filed as active; inconclusive = weak or mixed curves, or effect the other way; inactive = no such curve, though single readings can be large or run the other way; note: nearly all actives have a fitted effect of over 40% in size)
How it was run: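 Fluorescence read-out of CellTiter-Fluor viability reagent, added after cells had been exposed to compound in DMSO for 17.5 h at 37 C; 30 min development at 37 C/5% CO2. Cells: PGC/ERR line, 2,000/well.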

[2] = qHTS assay to identify small molecule agonists of the hypoxia (HIF-1) signaling pathway - cell viability counter screen (AID 1224844); note: nearly all actives have a fitted effect of over 50% in size
How it was run: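 CellTiter-Glo luminescence read-out, 30 min RT, taken in the same wells as the beta-lactamase HRE reporter assay; HRE-bla ME-180 cells, 0.5% dialyzed FBS, 17 hr compound treatment at 37C, 5% CO2.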

[3] = qHTS assay to identify small molecule agonists of H2AX (AID 1224845; active = well fitted activation curve with a large enough effect in the signal ratio in the repeat runs, not every such curve was filed as active; inconclusive = weak or mixed curves; the % refers to the signal ratio; for activation (H2AX phosphorylation): % is set by controls: 0 for no effect and ±100 for the full control effect); conditions: CHO-K1 phospho-H2AX Ser139 HTRF, 3 h; activation (H2AX phosphorylation): at 154 µM (top of the series) unless noted
How it was run: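 Wild-type CHO-K1 cells plated overnight, then exposed 3 hr at 37C to compounds at 15 concentrations (0.76% DMSO). Lysed, then HTRF anti-pH2AX(S139)-cryptate/anti-H2AX-d2 detection after 24 hr at room temperature; emissions 665 and 620 nm.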

[4] = qHTS assay to identify small molecule agonists of the hypoxia (HIF-1) signaling pathway (AID 1224846; active = well fitted activation curve with a large enough effect in the signal ratio in the repeat runs, not every such curve was filed as active; inconclusive = weak or mixed curves; the % refers to the signal ratio; for activation: % is set by controls: 0 for no effect and ±100 for the full control effect); conditions: HRE-bla ME-180 cells, beta-lactamase ratio, 17 h; activation: at 76.8 µM (top of the series) unless noted
How it was run: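 Beta-lactamase FRET read-out (CCF4-AM substrate) from ME-180 cells carrying an HRE-driven bla reporter, after 17 hrs compound exposure at 37C/5% CO2. Cells were seeded at 2,000 per well in 0.5% dialyzed FBS medium and preincubated 5 hrs.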

[5] = molecular target: Thyrotropin receptor (Homo sapiens) (UniProt P16473); experiment: qHTS assay to identify small molecule agonists of the thyroid stimulating hormone receptor (TSHR) signaling pathway (AID 1224843); conditions: TSHR-HEK293 cells, cAMP HTRF, agonist mode, 30 min; note: nearly all actives have a fitted effect of over 45% in size; for activation: % is set by controls: 0 for no effect and ±100 for the full control effect
How it was run: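 Compounds are titrated over 15 concentrations, in triplicate, onto TSHR-HEK293 cells seeded at 800/well. Plates sit 30 min at room temperature before cAMP-d2 and anti-cAMP cryptate are added; signal is read after a further hour.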

[6] = qHTS assay to identify small molecule agonists of H2AX - cell viability counter screen (AID 1224847); note: nearly all actives have a fitted effect of over 30% in size
How it was run: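 CHO-K1 wt, 1000 cells/well, o/n 37C; cpds 15 conc, 3 h 37C, 0.76% DMSO; CellTiter-Glo, 30 min RT, luminescence.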

[7] = qHTS assay to identify small molecule antagonists of the estrogen related receptor signaling pathway with the pleiotropic PPARgamma coactivator (PGC) from Tox21 10K library (AID 1224841; call rule not given here; note: actives are mostly falling curves and most rising ones were filed inactive; nearly all actives have a fitted effect of over 50% in size)
How it was run: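 Luminescence read-out (One-Glo luciferase reagent, 30 min at room temperature) from PGC/ERR cells exposed to DMSO-dissolved test compounds for 18 h at 37 C; cells, 2,000 per well, had been preincubated 6 h before compound transfer.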

[8] = qHTS assay to identify small molecule agonists of the estrogen related receptor signaling pathway with the pleiotropic PPARgamma coactivator (PGC) from Tox21 10K library (AID 1224842; active = well fitted activation curve with a large enough effect in the repeat runs; inconclusive = weak or mixed curves, or effect the other way; inactive = no such curve, though single readings can be large or run the other way; note: nearly all actives have a fitted effect of over 15% in size)
How it was run: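 PGC/ERR reporter cells (NTP line) were seeded 2,000 per well, rested 6 h at 37 C/5% CO2, then pin-dosed with compounds in DMSO for 18 h at 37 C; luciferase read by One-Glo luminescence after 30 min at room temperature.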

[9] = activation: at 92.4 µM (top of the series) unless noted
Potency is the fitted concentration of half-maximal effect; tags give direction and shape of the fitted curve or compound fluorescence and quenching.

Chain of UniProt P16473 (P16473 whole entry, looked up): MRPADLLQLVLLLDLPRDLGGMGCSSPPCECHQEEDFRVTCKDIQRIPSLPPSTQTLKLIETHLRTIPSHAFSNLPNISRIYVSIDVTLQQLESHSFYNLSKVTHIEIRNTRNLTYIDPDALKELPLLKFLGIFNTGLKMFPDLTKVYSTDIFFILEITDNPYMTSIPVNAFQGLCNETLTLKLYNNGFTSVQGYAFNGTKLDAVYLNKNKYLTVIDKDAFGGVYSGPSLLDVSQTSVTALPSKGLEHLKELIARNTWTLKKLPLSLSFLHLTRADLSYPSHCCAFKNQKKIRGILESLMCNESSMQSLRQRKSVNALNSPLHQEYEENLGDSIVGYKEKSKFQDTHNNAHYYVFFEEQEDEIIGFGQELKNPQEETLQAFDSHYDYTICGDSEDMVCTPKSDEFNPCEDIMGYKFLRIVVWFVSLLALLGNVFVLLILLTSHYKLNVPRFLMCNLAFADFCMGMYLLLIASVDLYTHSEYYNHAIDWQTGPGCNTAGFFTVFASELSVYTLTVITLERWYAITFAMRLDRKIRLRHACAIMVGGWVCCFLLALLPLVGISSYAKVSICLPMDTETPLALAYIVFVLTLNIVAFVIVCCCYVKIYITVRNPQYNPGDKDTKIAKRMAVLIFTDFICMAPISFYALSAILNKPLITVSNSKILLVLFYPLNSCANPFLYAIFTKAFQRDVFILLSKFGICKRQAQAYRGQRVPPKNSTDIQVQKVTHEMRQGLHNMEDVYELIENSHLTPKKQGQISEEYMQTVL

SMILES: CC(=O)c1cc2c(cc1C)C(C)(C)C(C)CC2(C)C (stereo not drawn)
- Potency [1]: inconclusive: 68.6 µM [cytotoxic, partial curve, poor fit]
- Potency [2]: active: 43.6 µM
- Potency [3]: active: 101 µM
- Potency [4]: inconclusive: 54.9 µM

SMILES: C[Si](Cn1cncn1)(c1ccc(F)cc1)c1ccc(F)cc1
- Potency [1]: inconclusive: 56.3 µM [cytotoxic, partial curve] and inconclusive: 48.6 µM [cytotoxic, partial curve]
- activation [5, 9]: inconclusive: 27.3%
- activation (H2AX phosphorylation) [3]: inconclusive: 5.13%
- Potency [6]: inconclusive: 113 µM [cytotoxic, single point]

SMILES: Oc1c(Cl)c(Cl)cc(Cl)c1Cl
- Potency [1]: inconclusive: 47.2 µM [cytotoxic, partial curve, poor fit]
- Potency [3]: inactive
- Potency [6]: active: 87.3 µM

SMILES: N#CCC#N
- Potency [1]: inconclusive: 61.1 µM [cytotoxic, single point]
- Potency [3]: active: 89.8 µM
- Potency [4]: inactive

SMILES: CCCC[n+]1ccc(C)cc1
- Potency [1]: inconclusive: 68.2 µM [cytotoxic, single point]
- Potency [2]: inconclusive: 61.7 µM [cytotoxic, partial curve, poor fit]
- Potency [4]: inconclusive: 43.4 µM [falling, partial curve]
- Potency [6]: active: 89.3 µM

SMILES: CC(=O)[O-].CC(=O)[O-].[Hg+2]
- Potency [1]: active: 2.73 µM
- Potency [6]: active: 6.35 µM

SMILES: Clc1ccc(CCC(Cn2ccnc2)Sc2c(Cl)cccc2Cl)cc1 (stereo not drawn)
- Potency [1]: inconclusive: 29.8 µM [cytotoxic]
- Potency [5, 9]: inconclusive: 23.7 µM [activator, partial curve, poor fit]
- Potency [3]: inconclusive: 13.9 µM [rising, full curve]
- Potency [4]: inconclusive: 19 µM [falling, partial curve]
- Potency [6]: inconclusive: 55.2 µM [cytotoxic, single point]

SMILES: Nc1nc(N)c(N)c(N)n1
- Potency [1]: inconclusive: 48.8 µM [rising, partial curve]
- Potency [3]: inconclusive: 56.9 µM [falling, partial curve]

SMILES: O=C(c1ccccc1)C(Cl)Cl
- Potency [1]: inconclusive: 61.1 µM [cytotoxic, partial curve, poor fit]
- Potency [2]: inconclusive: 49 µM [cytotoxic, partial curve]
- Potency [3]: inactive
- Potency [4]: inconclusive: 61.6 µM [falling, single point]
- Potency [6]: inconclusive: 45 µM [rising, partial curve]

SMILES: COP(=O)(OC)O/C(=C/Cl)c1cc(Cl)c(Cl)cc1Cl
- Potency [1]: inconclusive: 25.7 µM [cytotoxic, partial curve]
- activation [5, 9]: inconclusive: -31.4%
- Potency [4]: inconclusive: 46.1 µM [falling, partial curve]
- Potency [6]: inconclusive: 119 µM [cytotoxic, single point]

SMILES: CCC(OC(C)=O)C(CC(C)NC)(c1ccccc1)c1ccccc1 (stereo not drawn)
- Potency [1]: active: 69.2 µM
- Potency [2]: inconclusive: 39.2 µM [cytotoxic, partial curve]

SMILES: OC(Cc1ccccc1Cl)(Cn1[nH]cnc1=S)C1(Cl)CC1 (stereo not drawn)
- Potency [1]: inconclusive: 77 µM [cytotoxic, single point]
- Potency [5, 9]: inactive
- Potency [4]: inconclusive: 49 µM
- Potency [6]: inconclusive: 127 µM [cytotoxic, partial curve, poor fit]

SMILES: Oc1c(Br)c(Br)c(Br)c(Br)c1Br
- Potency [1]: inconclusive: 69 µM [cytotoxic, single point]
- Potency [2]: active: 43.9 µM
- Potency [3]: inconclusive: 128 µM
- Potency [4]: inconclusive: 49.3 µM [partial curve]
- Potency [6]: active: 80.5 µM

SMILES: N#CNC#N
- Potency [1]: inactive
- Potency [6]: inactive

SMILES: O=C(CCl)Nc1ccccc1
- Potency [1]: active: 24.3 µM
- Potency [2]: inconclusive: 49 µM [rising, partial curve, poor fit]
- Potency [3]: active: 80 µM
- Potency [4]: inconclusive: 61.6 µM [falling, single point]

SMILES: C[C@]12C/C(=C/O)C(=O)C[C@@H]1CC[C@@H]1[C@@H]2CC[C@@]2(C)[C@H]1CC[C@]2(C)O
- Potency [1]: inconclusive: 55 µM [cytotoxic, partial curve]
- Potency [5, 9]: inactive
- Potency [3]: active: 90.6 µM and inconclusive: 43.8 µM [activator, partial curve]
- Potency [6]: inconclusive: 128 µM [cytotoxic, single point]

SMILES: Clc1ccccc1-c1nnc(-c2ccccc2Cl)nn1
- Potency [1]: inactive
- Potency [6]: inconclusive: 112 µM [cytotoxic, single point] and active: 100 µM

SMILES: CN(C)c1ccc(N=Nc2ccccc2)cc1
- Potency [1]: inconclusive: 54.5 µM [cytotoxic, partial curve]
- Potency [3]: inconclusive: 101 µM [falling, single point]
- Potency [6]: inconclusive: 127 µM [cytotoxic, single point]

SMILES: O=[N+]([O-])O.O=[N+]([O-])O.[Cd]
- Potency [1]: active: 3.06 µM
- Potency [2]: inconclusive: 61.6 µM [cytotoxic, single point]
- Potency [4]: inconclusive: 19.5 µM [falling, full curve]
- Potency [6]: inconclusive: 56.6 µM [cytotoxic, partial curve]

SMILES: COc1ccc2c(c1OC)C(=O)O[C@@H]2[C@H]1c2cc3c(cc2CCN1C)OCO3
- Potency [1]: inconclusive: 10.8 µM [cytotoxic, full curve]
- Potency [6]: inactive

SMILES: NC(=S)Nc1ccccc1
- Potency [1]: inconclusive: 7.82 µM [cytotoxic, full curve]
- Potency [6]: inconclusive: 129 µM [cytotoxic, single point]

SMILES: CCn1cc[n+](C)c1
- Potency [1]: inconclusive: 0.621 µM [cytotoxic, single point]
- Potency [4]: inactive
- Potency [6]: active: 102 µM

SMILES: Nc1c(Cl)cc([N+](=O)[O-])cc1Cl
- Potency [1]: inconclusive: 54.5 µM [cytotoxic, partial curve]
- Potency [6]: inconclusive: 63.5 µM [cytotoxic, partial curve]

SMILES: CC(Oc1ccc(Cl)cc1Cl)C(=O)O (stereo not drawn)
- Potency [1]: inactive
- Potency [6]: inactive

SMILES: O=c1[nH]c2ccccc2n1CCCN1CCC(n2c(=O)[nH]c3cc(Cl)ccc32)CC1
- Potency [1]: inconclusive: 26.6 µM [cytotoxic, partial curve]
- Potency [3]: inconclusive: 61.9 µM [activator]
- Potency [6]: inconclusive: 55.2 µM [cytotoxic, single point]

SMILES: N#CC(CCc1ccc(Cl)cc1)(Cn1cncn1)c1ccccc1 (stereo not drawn)
- Potency [1]: active: 34.4 µM
- Potency [5, 9]: active: 8.63 µM
- Potency [4]: inconclusive: 49 µM [falling, partial curve]
- Potency [6]: active: 50.5 µM

SMILES: CCOP(=O)(O)OCC (tested in a mixture with another compound)
- Potency [1]: inactive and active: 60.6 µM
- Potency [2]: inconclusive: 61.2 µM [cytotoxic, single point]
- Potency [3]: inconclusive: 112 µM [activator, single point]
- Potency [4]: inconclusive: 54.5 µM
- Potency [6]: active: 28.2 µM

SMILES: CCCCN(CCCC)C(=S)[S-].CCCCN(CCCC)C(=S)[S-].[Zn+2]
- Potency [7]: inconclusive: 10.9 µM [falling, full curve, poor fit]
- Potency [8]: inconclusive: 6.11 µM [activator, single point]
- Potency [2]: active: 15.5 µM
- Potency [4]: inconclusive: 12.3 µM [falling, full curve]

SMILES: O=C1C(Cl)C(CCl)CN1c1cccc(C(F)(F)F)c1 (stereo not drawn)
- Potency [7]: inconclusive: 30.6 µM [falling, full curve]
- activation [5, 9]: inconclusive: -10.5%
- Potency [4]: inactive
- Potency [6]: inconclusive: 127 µM [cytotoxic, partial curve, poor fit]

SMILES: CN=C=S
- Potency [7]: inconclusive: 9.78 µM [falling, full curve]
- activation [5, 9]: inconclusive: -8.99%
- activation ([5]; at 92.4 µM (top of the series)): inactive: 0.789%
- Potency [6]: inactive

SMILES: C[As+](C)(C)CC(=O)[O-]
- Potency [7]: inconclusive: 19.3 µM [falling, partial curve, poor fit]

SMILES: O=c1[nH]c2ccccc2o1
- Potency [7]: inconclusive: 0.0487 µM [falling, single point]

SMILES: O=S(=O)(c1ccc(Cl)cc1)c1ccc(Cl)cc1
- Potency [7]: inconclusive: 29.8 µM [falling, partial curve]
- Potency [5, 9]: inconclusive: 12.3 µM [inhibitor, partial curve]
- Potency [3]: inconclusive: 9.09 µM [fluorescent, partial curve]
- Potency [4]: inconclusive: 55.6 µM [falling, partial curve, poor fit]

SMILES: Cc1cc2c3c(c1)C(c1ccccc1)=N[C@@H](NC(=O)c1ccncc1)C(=O)N3CC2
- Potency [7]: inactive

SMILES: CC(O)(CS(=O)(=O)c1ccc(F)cc1)C(=O)Nc1ccc(C#N)c(C(F)(F)F)c1 (stereo not drawn)
- Potency [7]: inconclusive: 28.3 µM [falling, partial curve]

SMILES: CC[C@H]1C[C@H]2[C@@H]3CCC4=CC(=O)CC[C@@H]4[C@H]3CC[C@]2(C)[C@H]1O
- Potency [7]: inconclusive: 29.8 µM [falling, partial curve]
- Potency [5, 9]: inactive
- activation (H2AX phosphorylation) [3]: inconclusive: 6.63% [at 70.9 µM]
- Potency [6]: inactive

SMILES: CC(C)(C)C(O)(CCc1ccc(Cl)cc1)Cn1cncn1 (stereo not drawn)
- Potency [7]: inconclusive: 68.6 µM [falling, single point]
- activation [5, 9]: inconclusive: 26.8% and inconclusive: 39.5%
- Potency [2]: inconclusive: 5.56 µM [cytotoxic, partial curve, poor fit]
- Potency [6]: inconclusive: 114 µM [cytotoxic, single point] and inconclusive: 127 µM [cytotoxic, partial curve, poor fit]

SMILES: O=c1[nH]c(=O)[nH]c(=O)[nH]1
- Potency [7]: inconclusive: 54.4 µM [falling, partial curve]
